# Laboratory results as given in the supplement of paper PMC4604168 (melanoma cell lines).
# The list shows a part of the results. Repeats are few or missing, and single values can be far off.
# How the values were obtained:
# Test in all cases: cell count relative to DMSO control; melanoma cells; higher = more viable cells
# Conditions in all cases: library dose: low library concentration; 72 h
# MZ2-MEL = tested on: MZ2-MEL
# MeWo = tested on: MeWo
# RPMI7951 = tested on: RPMI7951
# RVH-421 = tested on: RVH-421
# SkMel28 = tested on: SkMel28
# SkMel30 = tested on: SkMel30
# SkMel5 = tested on: SkMel5
# UACC257 = tested on: UACC257
# UACC62 = tested on: UACC62
# SkMel2 = tested on: SkMel2
# 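Note: cell number obtained by counting DAPI-stained nuclei in high-throughput microscope images with image analysis software, screen run in 1,536-well plates.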
Structure (SMILES),cell count (MZ2-MEL) [%],cell count (MeWo) [%],cell count (RPMI7951) [%],cell count (RVH-421) [%],cell count (SkMel28) [%],cell count (SkMel30) [%],cell count (SkMel5) [%],cell count (UACC257) [%],cell count (UACC62) [%],cell count (SkMel2) [%]
"CO[C@H]1C[C@@H]2CC[C@@H](C)[C@@](O)(O2)C(=O)C(=O)N2CCCC[C@H]2C(=O)O[C@H]([C@H](C)C[C@@H]2CC[C@@H](OCCO)[C@H](OC)C2)CC(=O)[C@H](C)/C=C(\C)[C@@H](O)[C@@H](OC)C(=O)[C@H](C)C[C@H](C)/C=C/C=C/C=C/1C [everolimus] + COc1cc(N2CCC(N3CCN(C)CC3)CC2)ccc1Nc1ncc(Cl)c(Nc2ccccc2S(=O)(=O)C(C)C)n1 [NVP-TAE684] (first compound 0.02 µM, partner dose 0.08 µM)",78.4,63.4,77.1,82.3,62.8,55.7,80.4,57.8,66.5,–
"CC(=O)O[C@@]12CO[C@@H]1C[C@H](O)[C@@]1(C)C(=O)[C@H](O)C3=C(C)[C@@H](OC(=O)[C@H](O)[C@@H](NC(=O)OC(C)(C)C)c4ccccc4)C[C@@](O)([C@@H](OC(=O)c4ccccc4)[C@H]21)C3(C)C [Docetaxel] + C=CCNC1=C2C[C@@H](C)C[C@H](OC)[C@H](O)[C@@H](C)/C=C(\C)[C@H](OC(N)=O)[C@@H](OC)/C=C\C=C(/C)C(=O)NC(=CC1=O)C2=O [Tanespimycin] (first compound 0.0001 µM, partner dose 0.002 µM)",39.8,48.3,35.3,68.3,37.5,29.4,–,–,44.7,44.8
"CC(=O)O[C@@]12CO[C@@H]1C[C@H](O)[C@@]1(C)C(=O)[C@H](O)C3=C(C)[C@@H](OC(=O)[C@H](O)[C@@H](NC(=O)OC(C)(C)C)c4ccccc4)C[C@@](O)([C@@H](OC(=O)c4ccccc4)[C@H]21)C3(C)C [Docetaxel] + CS(=O)(=O)CCNCc1ccc(-c2ccc3ncnc(Nc4ccc(OCc5cccc(F)c5)c(Cl)c4)c3c2)o1 [lapatinib] (first compound 0.0001 µM, partner dose 0.8 µM)",45.4,40.4,43,73,34.5,32.6,–,–,48.3,36.7
"Nc1ccn([C@@H]2O[C@H](CO)[C@@H](O)C2(F)F)c(=O)n1 [gemcitabine] + CC(=O)c1c(C)c2cnc(Nc3ccc(N4CCNCC4)cn3)nc2n(C2CCCC2)c1=O [palbociclib] (first compound 0.0004 µM, partner dose 0.04 µM)",83.8,83.6,79.4,69.5,75.2,80.4,–,–,89.9,106
"Nc1ccn([C@@H]2O[C@H](CO)[C@@H](O)C2(F)F)c(=O)n1 [gemcitabine] + Cn1c(Nc2ccc(C(F)(F)F)cc2)nc2cc(Oc3ccnc(-c4ncc(C(F)(F)F)[nH]4)c3)ccc21 [CHIR265] (first compound 0.0004 µM, partner dose 0.08 µM)",73.1,70.8,60.7,60.1,84.2,54.9,–,–,44.6,85.1
"CC(=O)O[C@@]12CO[C@@H]1C[C@H](O)[C@@]1(C)C(=O)[C@H](O)C3=C(C)[C@@H](OC(=O)[C@H](O)[C@@H](NC(=O)OC(C)(C)C)c4ccccc4)C[C@@](O)([C@@H](OC(=O)c4ccccc4)[C@H]21)C3(C)C [Docetaxel] + Cn1nnc2c(C(N)=O)ncn2c1=O [temozolomide] (first compound 0.0001 µM, partner dose 2 µM)",40.5,34.9,34.5,59.9,29.7,30.6,–,–,43.5,35.4
"CC(=O)O[C@@]12CO[C@@H]1C[C@H](O)[C@@]1(C)C(=O)[C@H](O)C3=C(C)[C@@H](OC(=O)[C@H](O)[C@@H](NC(=O)OC(C)(C)C)c4ccccc4)C[C@@](O)([C@@H](OC(=O)c4ccccc4)[C@H]21)C3(C)C [Docetaxel] + O=C(O)[C@@H]1[O][Sb](=[O])([O][Sb]2(=[O])[O][C@H]([C@H](O)CO)[C@H](O)[C@H](C(=O)O)[O]2)[O][C@H]([C@H](O)CO)[C@@H]1O [stibogluconate] (first compound 0.0001 µM, partner dose 2 µM)",49.6,45.8,42.8,68.1,62.8,48.6,–,–,42.9,52.5
"CO[C@H]1C[C@@H]2CC[C@@H](C)[C@@](O)(O2)C(=O)C(=O)N2CCCC[C@H]2C(=O)O[C@H]([C@H](C)C[C@@H]2CC[C@@H](OCCO)[C@H](OC)C2)CC(=O)[C@H](C)/C=C(\C)[C@@H](O)[C@@H](OC)C(=O)[C@H](C)C[C@H](C)/C=C/C=C/C=C/1C [everolimus] + COC(=O)c1sccc1S(=O)(=O)Nc1ccc(Nc2ccccc2)cc1OC [GSK0660] (first compound 0.02 µM, partner dose 1 µM)",72.6,76.9,90.3,115,52,59.4,101,77.3,75.8,–
